Test [1] concerns the target C-terminally FLAG tagged CBFB (human) (UniProt Q13951). Description: co-IP; FLAG IP from cells expressing FLAG tagged CBFB followed by immunoblot; 10 µg/ml RNase A in the lysate.
In test [2] the target is N-terminally FLAG tagged CBFB (human) (UniProt Q13951). The description is as above.
Test [3] concerns the target CBFB (core binding factor subunit beta), endogenous (human (endogenous in MCF10A)) (UniProt Q13951). The experiment in a line: co-IP; endogenous co-IP of CBFB and hnRNPK, cytoplasmic fraction (Supplementary Fig. 4d).
Test [4] has the same target. Description: co-IP; endogenous co-IP followed by immunoblot; 10 µg/ml RNase A added in the co-IP lysate (Fig. 6b).
For test [5] the target is unchanged. The experiment in a line: co-IP; endogenous co-IP of CBFB and hnRNPK, nuclear fraction (Supplementary Fig. 4d).
The target of a further test is recombinant hnRNPK (UniProt P61978). The experiment in a line: pull-down; RNA pulldown assay (RPA): biotin labeled RUNX1 mRNA on M-280 Dynabeads, recombinant CBFB in the absence or presence of recombinant hnRNPK; western blotting; both purified. (In general: A western blot detects proteins with antibodies after separation by electrophoresis.)

The values below come from paper PMC6502810.

Results are given in words; binding and its absence hold for the method and conditions named. For part of these data: In cells and extracts the contact can be indirect. Some binding calls cover weakened binding; strength is not graded here.

For hnRNPK (from UniProt P61978 1-463), the binding entry is given as “binds” in test [1]; “binds” in test [2]; “binds” in test [3]; “binds” in test [4]; “no binding (condition: in the nuclear fraction)” in test [5].
With “recombinant CBFB (from UniProt Q13951 1-182)”, the binding entry with recombinant hnRNPK is “binds”.
